# For part of these data: What follows is the remainder of the data, with few or none of the strong results. This is a selection; strong and weak results do not stand in their true shares.
# Legend:
# [1] = molecular target: Mast/stem cell growth factor receptor Kit (Homo sapiens) (UniProt P10721); settings: at 1 µM
# [2] = tested on: Mast/stem cell growth factor receptor Kit (Homo sapiens), P10721 [D816V]; settings: at 0.1 µM
# [3] = tested on: Mast/stem cell growth factor receptor Kit (Homo sapiens), P10721 [D816V]; settings: at 1 µM
# [4] = tested on: Mast/stem cell growth factor receptor Kit (Homo sapiens), P10721 [T670I]; settings: at 0.1 µM
# [5] = tested on: Mast/stem cell growth factor receptor Kit (Homo sapiens), P10721 [T670I]; settings: at 1 µM
# [6] = tested on: Mast/stem cell growth factor receptor Kit (Homo sapiens), P10721 [V560G]; settings: at 0.1 µM
# [7] = tested on: Mast/stem cell growth factor receptor Kit (Homo sapiens), P10721 [V560G]; settings: at 1 µM
# [8] = molecular target: Tyrosine-protein kinase Lck (Homo sapiens) (UniProt P06239); settings: at 0.1 µM
# [9] = molecular target: Tyrosine-protein kinase Lck (Homo sapiens) (UniProt P06239); settings: at 1 µM
# [10] = molecular target: Leukocyte tyrosine kinase receptor (Homo sapiens) (UniProt P29376); settings: at 0.1 µM
# [11] = molecular target: Leukocyte tyrosine kinase receptor (Homo sapiens) (UniProt P29376); settings: at 1 µM
# [12] = molecular target: Tyrosine-protein kinase Lyn (Homo sapiens) (UniProt P07948); settings: at 0.1 µM
# [13] = molecular target: Tyrosine-protein kinase Lyn (Homo sapiens) (UniProt P07948); settings: at 1 µM
# [14] = molecular target: Tyrosine-protein kinase Lyn (Homo sapiens) (UniProt P07948); settings: at 0.1 µM; remark: listed apart in the source
# [15] = molecular target: Tyrosine-protein kinase Lyn (Homo sapiens) (UniProt P07948); settings: at 1 µM; remark: listed apart in the source
# [16] = molecular target: T1, Tyrosine-protein kinase Mer (Homo sapiens) (UniProt Q12866); settings: at 0.1 µM
# T1 sequence (whole entry): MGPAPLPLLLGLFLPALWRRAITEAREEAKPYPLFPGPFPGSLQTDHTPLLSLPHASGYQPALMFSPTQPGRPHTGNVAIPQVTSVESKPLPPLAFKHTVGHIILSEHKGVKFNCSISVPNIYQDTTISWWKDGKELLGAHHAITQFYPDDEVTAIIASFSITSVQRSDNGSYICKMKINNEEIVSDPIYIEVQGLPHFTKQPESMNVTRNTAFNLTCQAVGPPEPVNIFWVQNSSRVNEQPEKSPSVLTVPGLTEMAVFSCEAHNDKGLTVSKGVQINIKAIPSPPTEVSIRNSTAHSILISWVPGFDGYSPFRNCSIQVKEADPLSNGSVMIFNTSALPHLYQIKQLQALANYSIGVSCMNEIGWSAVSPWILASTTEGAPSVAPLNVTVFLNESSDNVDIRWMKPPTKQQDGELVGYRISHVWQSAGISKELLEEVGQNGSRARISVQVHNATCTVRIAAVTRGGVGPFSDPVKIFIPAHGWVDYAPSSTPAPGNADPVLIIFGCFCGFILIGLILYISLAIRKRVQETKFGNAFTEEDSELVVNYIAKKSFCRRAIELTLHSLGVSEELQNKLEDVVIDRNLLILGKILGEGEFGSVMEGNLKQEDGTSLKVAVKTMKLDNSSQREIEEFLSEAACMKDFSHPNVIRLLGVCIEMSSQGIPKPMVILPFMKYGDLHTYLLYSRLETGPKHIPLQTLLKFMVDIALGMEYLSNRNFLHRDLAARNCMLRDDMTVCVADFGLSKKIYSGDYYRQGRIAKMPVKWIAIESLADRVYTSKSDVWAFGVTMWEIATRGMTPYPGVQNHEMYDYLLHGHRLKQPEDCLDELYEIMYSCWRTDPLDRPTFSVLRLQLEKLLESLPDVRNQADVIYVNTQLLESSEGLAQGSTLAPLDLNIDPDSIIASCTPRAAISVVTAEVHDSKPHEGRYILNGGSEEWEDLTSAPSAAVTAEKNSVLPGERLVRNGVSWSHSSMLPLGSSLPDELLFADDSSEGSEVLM
# [17] = molecular target: Hepatocyte growth factor receptor (Homo sapiens) (UniProt P08581); settings: at 0.1 µM
# [18] = molecular target: Hepatocyte growth factor receptor (Homo sapiens) (UniProt P08581); settings: at 1 µM
# [19] = molecular target: T2, Muscle, skeletal receptor tyrosine-protein kinase (Homo sapiens) (UniProt O15146); settings: at 0.1 µM;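 also: values are mean inhibition of MuSK from the GSK PKIS kinase screening panel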
# T2 sequence (whole entry): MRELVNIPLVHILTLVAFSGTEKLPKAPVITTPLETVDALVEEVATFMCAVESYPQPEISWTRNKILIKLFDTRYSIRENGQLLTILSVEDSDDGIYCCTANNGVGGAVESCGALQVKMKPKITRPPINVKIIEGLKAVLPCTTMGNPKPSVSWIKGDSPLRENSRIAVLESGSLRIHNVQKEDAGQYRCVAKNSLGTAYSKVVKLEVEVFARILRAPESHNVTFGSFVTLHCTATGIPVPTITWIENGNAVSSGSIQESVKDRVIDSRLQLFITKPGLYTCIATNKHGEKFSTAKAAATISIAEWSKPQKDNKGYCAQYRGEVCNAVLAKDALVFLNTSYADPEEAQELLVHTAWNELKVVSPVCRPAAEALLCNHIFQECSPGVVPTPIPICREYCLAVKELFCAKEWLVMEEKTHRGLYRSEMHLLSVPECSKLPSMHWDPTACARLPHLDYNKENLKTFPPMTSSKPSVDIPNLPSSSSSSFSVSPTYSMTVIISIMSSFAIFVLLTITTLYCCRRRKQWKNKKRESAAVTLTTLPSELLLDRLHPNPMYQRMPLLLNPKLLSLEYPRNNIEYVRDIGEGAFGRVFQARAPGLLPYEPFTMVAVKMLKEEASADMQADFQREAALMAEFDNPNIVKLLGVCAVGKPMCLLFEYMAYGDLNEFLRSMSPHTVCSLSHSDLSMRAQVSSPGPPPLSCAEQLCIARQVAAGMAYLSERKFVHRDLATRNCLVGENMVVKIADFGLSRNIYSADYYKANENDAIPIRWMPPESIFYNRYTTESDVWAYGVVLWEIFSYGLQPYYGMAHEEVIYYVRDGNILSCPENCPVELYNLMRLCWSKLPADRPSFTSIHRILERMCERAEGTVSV
# [20] = molecular target: T1, Tyrosine-protein kinase Mer (Homo sapiens); settings: at 1 µM
# UniProt P29376, sequence (P29376 whole entry): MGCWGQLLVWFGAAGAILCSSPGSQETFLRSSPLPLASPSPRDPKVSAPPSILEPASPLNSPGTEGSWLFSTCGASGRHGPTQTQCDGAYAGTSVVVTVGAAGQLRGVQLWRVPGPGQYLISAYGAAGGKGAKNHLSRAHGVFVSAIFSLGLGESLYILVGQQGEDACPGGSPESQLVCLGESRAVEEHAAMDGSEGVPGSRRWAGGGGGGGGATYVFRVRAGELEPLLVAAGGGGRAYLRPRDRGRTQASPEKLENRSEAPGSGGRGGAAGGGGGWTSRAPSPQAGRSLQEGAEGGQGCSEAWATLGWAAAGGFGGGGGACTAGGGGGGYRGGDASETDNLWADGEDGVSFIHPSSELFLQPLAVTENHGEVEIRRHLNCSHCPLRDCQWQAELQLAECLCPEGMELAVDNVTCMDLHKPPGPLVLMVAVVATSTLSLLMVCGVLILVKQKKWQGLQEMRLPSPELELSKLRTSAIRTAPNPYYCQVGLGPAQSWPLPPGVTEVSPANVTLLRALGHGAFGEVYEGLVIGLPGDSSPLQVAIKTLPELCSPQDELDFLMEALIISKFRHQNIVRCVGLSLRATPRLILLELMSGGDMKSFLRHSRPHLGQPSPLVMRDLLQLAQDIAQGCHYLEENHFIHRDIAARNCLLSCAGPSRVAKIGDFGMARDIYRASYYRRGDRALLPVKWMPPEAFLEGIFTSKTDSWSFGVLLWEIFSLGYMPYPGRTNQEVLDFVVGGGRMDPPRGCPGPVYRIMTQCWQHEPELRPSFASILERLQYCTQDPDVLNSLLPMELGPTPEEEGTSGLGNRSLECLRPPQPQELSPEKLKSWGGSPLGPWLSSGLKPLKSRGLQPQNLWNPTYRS
# UniProt P06239, sequence (P06239 whole entry, looked up): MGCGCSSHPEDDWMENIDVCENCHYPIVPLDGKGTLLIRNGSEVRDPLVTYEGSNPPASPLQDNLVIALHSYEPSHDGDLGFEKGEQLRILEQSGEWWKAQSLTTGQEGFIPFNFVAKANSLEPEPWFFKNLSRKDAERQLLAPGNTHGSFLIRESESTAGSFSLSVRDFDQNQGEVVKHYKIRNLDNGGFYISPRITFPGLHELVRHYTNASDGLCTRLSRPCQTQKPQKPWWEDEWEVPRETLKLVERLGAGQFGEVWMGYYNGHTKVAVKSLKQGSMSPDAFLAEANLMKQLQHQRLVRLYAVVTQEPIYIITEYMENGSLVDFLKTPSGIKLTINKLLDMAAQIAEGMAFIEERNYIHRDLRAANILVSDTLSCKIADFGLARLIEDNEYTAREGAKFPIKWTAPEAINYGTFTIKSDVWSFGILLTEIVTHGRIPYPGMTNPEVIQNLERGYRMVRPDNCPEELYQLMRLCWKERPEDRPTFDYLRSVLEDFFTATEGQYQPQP
# UniProt P08581, sequence (P08581 whole entry): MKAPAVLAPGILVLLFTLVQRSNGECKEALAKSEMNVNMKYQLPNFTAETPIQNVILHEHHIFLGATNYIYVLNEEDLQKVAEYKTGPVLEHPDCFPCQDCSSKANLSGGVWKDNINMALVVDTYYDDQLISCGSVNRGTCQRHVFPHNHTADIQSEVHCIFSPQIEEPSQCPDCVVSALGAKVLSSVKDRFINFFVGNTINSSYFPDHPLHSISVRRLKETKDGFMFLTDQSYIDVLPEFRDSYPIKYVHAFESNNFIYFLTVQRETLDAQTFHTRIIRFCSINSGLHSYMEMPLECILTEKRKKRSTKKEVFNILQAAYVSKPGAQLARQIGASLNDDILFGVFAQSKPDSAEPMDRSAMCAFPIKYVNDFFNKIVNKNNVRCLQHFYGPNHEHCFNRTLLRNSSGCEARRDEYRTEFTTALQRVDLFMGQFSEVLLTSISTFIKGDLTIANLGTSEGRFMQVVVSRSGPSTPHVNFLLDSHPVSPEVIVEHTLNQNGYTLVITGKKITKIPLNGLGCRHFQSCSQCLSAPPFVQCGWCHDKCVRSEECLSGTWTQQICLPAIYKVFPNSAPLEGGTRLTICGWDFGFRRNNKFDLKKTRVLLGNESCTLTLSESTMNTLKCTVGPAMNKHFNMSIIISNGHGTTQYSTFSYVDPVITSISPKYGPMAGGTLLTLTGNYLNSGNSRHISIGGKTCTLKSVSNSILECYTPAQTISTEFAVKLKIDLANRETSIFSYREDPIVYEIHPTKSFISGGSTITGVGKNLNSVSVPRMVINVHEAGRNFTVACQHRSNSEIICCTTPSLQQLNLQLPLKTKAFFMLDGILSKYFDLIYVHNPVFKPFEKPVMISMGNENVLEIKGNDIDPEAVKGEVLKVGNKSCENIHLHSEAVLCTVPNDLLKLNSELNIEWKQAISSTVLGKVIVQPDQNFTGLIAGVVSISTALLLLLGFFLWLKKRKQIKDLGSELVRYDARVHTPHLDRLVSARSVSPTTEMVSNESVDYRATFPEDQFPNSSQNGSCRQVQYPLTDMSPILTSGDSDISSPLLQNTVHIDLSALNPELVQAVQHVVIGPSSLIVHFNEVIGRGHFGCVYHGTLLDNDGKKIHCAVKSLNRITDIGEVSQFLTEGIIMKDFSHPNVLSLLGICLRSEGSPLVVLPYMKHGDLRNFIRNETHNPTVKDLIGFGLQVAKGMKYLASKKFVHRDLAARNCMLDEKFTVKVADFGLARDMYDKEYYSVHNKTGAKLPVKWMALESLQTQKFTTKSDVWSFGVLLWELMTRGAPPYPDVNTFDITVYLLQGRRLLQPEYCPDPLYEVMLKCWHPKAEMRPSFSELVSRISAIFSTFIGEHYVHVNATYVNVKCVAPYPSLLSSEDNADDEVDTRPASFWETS
# UniProt P07948, sequence (P07948 whole entry, looked up): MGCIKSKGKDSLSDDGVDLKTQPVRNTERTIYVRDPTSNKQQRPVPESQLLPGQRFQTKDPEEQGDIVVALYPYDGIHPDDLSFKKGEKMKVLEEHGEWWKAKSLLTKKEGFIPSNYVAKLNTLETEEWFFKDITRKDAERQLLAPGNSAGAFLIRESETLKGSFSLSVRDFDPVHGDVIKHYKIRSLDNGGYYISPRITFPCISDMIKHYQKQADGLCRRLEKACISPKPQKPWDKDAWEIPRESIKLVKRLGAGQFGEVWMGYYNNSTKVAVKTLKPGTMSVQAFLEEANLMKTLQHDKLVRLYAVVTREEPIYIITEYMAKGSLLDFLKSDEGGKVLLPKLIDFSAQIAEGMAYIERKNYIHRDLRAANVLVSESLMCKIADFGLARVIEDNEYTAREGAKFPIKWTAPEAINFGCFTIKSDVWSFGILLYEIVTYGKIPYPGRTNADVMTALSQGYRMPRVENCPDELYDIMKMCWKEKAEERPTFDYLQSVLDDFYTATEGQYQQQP
# UniProt P10721, sequence (P10721 whole entry): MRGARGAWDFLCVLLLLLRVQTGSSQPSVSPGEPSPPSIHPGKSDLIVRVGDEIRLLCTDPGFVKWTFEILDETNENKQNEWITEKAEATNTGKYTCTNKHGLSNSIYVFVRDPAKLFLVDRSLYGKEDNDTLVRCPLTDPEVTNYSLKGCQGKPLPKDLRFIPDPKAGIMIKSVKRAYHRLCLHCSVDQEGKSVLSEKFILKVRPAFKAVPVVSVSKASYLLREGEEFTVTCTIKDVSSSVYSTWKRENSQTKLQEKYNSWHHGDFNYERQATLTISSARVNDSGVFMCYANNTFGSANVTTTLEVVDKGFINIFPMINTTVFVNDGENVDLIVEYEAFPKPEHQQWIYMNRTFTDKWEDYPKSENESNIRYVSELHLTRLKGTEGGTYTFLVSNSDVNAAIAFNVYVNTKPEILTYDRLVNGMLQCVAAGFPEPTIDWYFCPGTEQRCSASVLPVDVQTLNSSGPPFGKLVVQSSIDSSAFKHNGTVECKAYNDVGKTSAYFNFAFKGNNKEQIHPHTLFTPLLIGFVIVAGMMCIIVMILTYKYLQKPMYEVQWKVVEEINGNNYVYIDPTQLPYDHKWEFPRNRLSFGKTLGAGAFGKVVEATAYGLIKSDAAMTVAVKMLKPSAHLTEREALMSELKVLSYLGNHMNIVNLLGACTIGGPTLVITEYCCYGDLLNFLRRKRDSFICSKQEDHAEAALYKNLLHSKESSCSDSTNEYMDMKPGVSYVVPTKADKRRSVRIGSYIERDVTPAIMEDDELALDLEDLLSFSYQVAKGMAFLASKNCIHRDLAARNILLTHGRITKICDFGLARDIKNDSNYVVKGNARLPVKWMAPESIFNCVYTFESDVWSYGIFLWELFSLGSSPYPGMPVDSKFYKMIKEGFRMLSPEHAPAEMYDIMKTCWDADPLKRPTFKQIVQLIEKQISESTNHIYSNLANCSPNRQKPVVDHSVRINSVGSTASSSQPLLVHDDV
SMILES,inhibition [1] [%],inhibition [2] [%],inhibition [3] [%],inhibition [4] [%],inhibition [5] [%],inhibition [6] [%],inhibition [7] [%],inhibition [8] [%],inhibition [9] [%],inhibition [10] [%],inhibition [11] [%],inhibition [12] [%],inhibition [13] [%],inhibition [14] [%],inhibition [15] [%],inhibition [16] [%],inhibition [17] [%],inhibition [18] [%],inhibition [19] [%],inhibition [20] [%]
COc1ccccc1Oc1nccc(-c2c(-c3ccc(F)cc3)ncn2C2CCNCC2)n1,8.95,3.97,5.5,2.55,2.99,-1.68,1.1,3.56,5.62,5.36,3.32,6.36,5.75,3.05,3.76,0.06,19.6,8.14,3.29,–
Cc1cccc(Oc2nccc(-c3c(-c4ccc(F)cc4)ncn3C3CCNCC3)n2)c1C,4.89,4.08,5.38,2.27,4.27,-2.79,-0.3,3.51,4.76,3.98,4.52,3.92,5.54,2.25,2.21,0,5.13,6.5,2.7,2.26
CS(=O)(=O)c1ccc(Oc2nccc(-c3c(-c4ccc(F)cc4)ncn3C3CCNCC3)n2)cc1,4.75,1.38,1.44,2.19,4.47,-1,-2.6,2.2,3.48,5.06,4.8,5.75,7.35,3.63,3.45,-0.14,5.26,5.77,1.21,1.5
Fc1ccc(-c2ncn(C3CCNCC3)c2-c2ccnc(Oc3ccc(Cl)cc3)n2)cc1,2.73,4.23,-1.86,0.72,1.44,0.75,2.03,0.42,2.31,0.61,0.46,0.7,1.01,0.36,0.75,-0.42,11.5,-0.9,2.45,4.01
Fc1ccc(-c2ncn(C3CCNCC3)c2-c2ccnc(Oc3cccc(F)c3)n2)cc1,7.23,5.53,3.91,1.74,4.41,-2.13,-2.43,5.25,11.3,5.94,3.34,6.08,6.98,3.39,4.79,2.09,9.18,2.7,3.69,–
O=C(O)c1ccc(Oc2nccc(-c3c(-c4ccc(F)cc4)ncn3C3CCNCC3)n2)cc1,5.35,2.94,2.74,3.36,4.28,-4.07,-2.65,5.34,1.84,6.24,4.51,3.91,4.1,-0.74,1.28,0.67,2.19,1.71,1.88,10.8
O=C1NC(=O)C(c2cccc([N+](=O)[O-])c2)=C1Nc1cc(Cl)c(O)c(Cl)c1,-0.5,1.61,2.18,0.69,-0.25,1.46,1.1,1.1,3.48,1.42,1.2,2.51,0.9,1.46,2.23,-0.43,6.61,6.2,0.61,0.18
